Measurements: the supplement of paper PMC11417369
This is one part of the list.

Test system: PF3D7_0420300 AP2 domain 1 (GST-tagged)
Test: gcPBM binding intensity (ln(normalized median fluorescence intensity)); higher = stronger DNA binding
Method in brief: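 An Agilent 4 × 180k array carrying primer-extended double-stranded 36-bp intergenic genomic probes and negative controls received GST-tagged P. falciparum DNA-binding domains expressed in E. coli, about 25 μg on average, for 1 h. The binding buffer contained 1× PBS, 1% milk, 0.2 mg/ml BSA, 0.5% salmon testes DNA and 0.03% Triton X-100. Binding intensity is the top Masliner-normalised natural-log median intensity across replicate spots of either probe orientation, read after Alexa488 anti-GST antibody staining and a 488 nm scan.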

| Sequence | gcPBM binding intensity (ln) |
| --- | --- |
| AAGAACAGAACGTACACACACATATTTATATTTATA [CACACA_site7594] | 9.82 |
| TATATTTCAGGGGGGAGTACAAATTTTTTTATATAA [XGTACX_site1600] | 10.1 |
| ATTTGTAATATTAAATGTACAGGTAAGAAATATCAG [XGTACX_site1562] | 9.32 |
| TAAGGAAAAAAAATATGTACTTATAGTTCCTTCTTT [XGTACX_site2202] | 9.08 |
| TTATAAATGAATAAATGTACAAAATATATATATATA [XGTACX_site8829] | 9.22 |
| CATAACATAAAATAGGTGCACAAAAATTGTAATTGA | 9.58 |
| TTCAGTGTATACATATGTACATATATATATATATAT [XGTACX_site1621] | 9.26 |
| ATTTTTATTTGTTACGCATGCATAAAAGTGCATACT [TGCATGCA_site547] | 9.27 |
| TTGTAATATATGTATTGTACGCATATAACAATTATT [XGTACX_site3652] | 9.16 |
| AAAATACATAAATGTTCACACATTAAAAAGCAGAAG [CACACA_site5346] | 9.47 |
| TATGTCAGATGAAAGGGTACATAATATAATATATTT [XGTACX_site8062] | 9.08 |
| TTTATAAAGAAACACACACACATGTGAACATAAAAA [CACACA_site1908] | 9.92 |
| GTGTAAATAAGGATATATAACAATCAACAAAACATA [CACACA_negctrl_site1759] | 9.61 |
| TGTATGAAATATATTACACACATATATAATATATAT [CACACA_site793] | 9.44 |
| ATATTTTTCAAACATCGTACATTATGAGTTAAAATT [XGTACX_site584] | 9.1 |
| ATACACAAAATTATTAAATCAATAAATATATGGTTT [CACACA_negctrl_site353] | 9.28 |
| CATTAATATATATATACATGCACGTTTTAAAAAAAA [TGCATGCA_site875] | 9.12 |
| TAATTATGCAGACACACACACACACGCAACTAAAAA [CACACA_site7253] | 10.1 |
| ATGGGAATATAATTATGTACATATAAAAATTATAAA [XGTACX_site5336] | 9.21 |

| Sequence | gcPBM binding intensity (ln) |
| --- | --- |
| TCATTTCACGGACACACACACACAATATATTTCCTT [CACACA_site6023] | 10.2 |
| AAAAAATATTTTTACAGTACATATATATAAAATGTT [XGTACX_site3215] | 9.19 |
| TAACAAAGGAAAGATATACACACGTATGCATGATAA [CACACA_site2520] | 9.68 |
| TTTTTATTACATAATTAAAAAAAATAATAAAATAAA [XGTACX_negctrl_site249] | 8.79 |
| ATATATATATATTTATGTACTTAATAATTTATTCAC [XGTACX_site7301] | 9.2 |
| TTTTTTTTTTAATTCGCACACTGTCTTCATACAATT [CACACA_site1379] | 9.49 |
| TGCAGTCTGGAGAAAAGTACATAGTATCTGGTAACC [XGTACX_site2019] | 9.11 |
| TACATACATACATACACACACACATATATATACATA [CACACA_site853] | 10.1 |
| ATATCATTAAAAGGATGTACATATGTGTATACAATA [XGTACX_site871] | 9.34 |
| TAAAAAATATAAACTGCACACACAAAAAAAAAAGAG [CACACA_site8379] | 10.2 |
| AATTTAAAATAATATTGTACTTAGATATAAATATGA [XGTACX_site4198] | 9.01 |
| ATGGTACACAAATATACATGCAATAATAAAAAAAAA [TGCATGCA_site879] | 9.26 |
| ATAATAATATATATTACACACGCATCGTTCATTTAT [CACACA_site8752] | 9.62 |
| ATTAATATATATGGATGTACTTATGTATGTATGCAT [XGTACX_site2263] | 9.39 |
| GGAAAAACCATTCGCACACACACATAATATATAATA [CACACA_site1424] | 9.85 |
| CATGTATAATATAATACACACTATATAATATACACC [CACACA_site5267] | 9.59 |
| TATTTATATGGACACACACACATATAAATAAATAAA [CACACA_site6346] | 9.93 |
| TCTTACTAATATCGCACACACATATGTAGACGGGAT [CACACA_site87] | 9.62 |
| TATTGACAAAATAGCTGTACAAATTAAAAGAAATAA [XGTACX_site4415] | 9.23 |

| Sequence | gcPBM binding intensity (ln) |
| --- | --- |
| ATGGCCATAATATAGACACACATATATAAATATATA [CACACA_site2230] | 9.28 |
| CGATATGTTCAATATTGTACTATTTATAATAATATG [XGTACX_site3051] | 9.09 |
| CTTAAAAAAAAAAAATGTACACATAAAAAAAATACA [XGTACX_site6700] | 9.43 |
| TTATTGTCTTCTCATATACACACTTTTATGACTATC [CACACA_site3142] | 9.57 |
| TTTAATTGATAATGAAGACAATTATATGCATCCAAA [TGCATGCA_negctrl_site138] | 9.01 |
| TAAATAAGGAAGGAAACACACATTAAAAAATAAATA [CACACA_site618] | 9.63 |
| AACAGAAGCACATACACACACTCAAAAAAAAAAAAA [CACACA_site5652] | 9.57 |
| TTTTTAAATTATTTGAAAAAAAGAAAATTATAAACA [CACACA_negctrl_site1599] | 8.72 |
| ATTTTATTCTAAAAAGGTACACATATTATTTTATGA [XGTACX_site7233] | 8.89 |
| TATATTTTCTATAGGTGTACTCCACATGCGGTGTTA [XGTACX_site7471] | 9.08 |
| ATATTGATACATCCAATACACACTACATATAATGAT [CACACA_site1874] | 9.54 |
| AAACATCTTTACAACGTCCCTCCTTTTTTATGTACC [GTGCAC_negctrl_site528] | 9.47 |
| AATATATATAAATATTGTACAAAAATATATATATAT [XGTACX_site2910] | 9.26 |
| TCCCTCTTTTTATTCTCACACACGTTTATATATAAA [CACACA_site1644] | 9.76 |
| ATATATGATGTAAAAGCACACATATATATATATATA [CACACA_site9330] | 9.21 |
| TATATAAACATATAAACATGCAATATATATATGTTA [TGCATGCA_site765] | 9.34 |
| GGAAAAAAACTTATGAGTACACATAAATATAGCACA [XGTACX_site6686] | 9.29 |
| AAAAATATATAACAAAGTACATATATATTTAGTAAT [XGTACX_site8791] | 9.32 |
| AAAAAAATTAAATCAAGTACTCATTCTTAAATTATA [XGTACX_site1274] | 8.99 |
